Data on 34 variants can be found in the RNAGym collection of RNA variant scans (doi:10.1093/nar/gkz1192).

Read counts are not given, so values of variants with three or more changes are uncertain.

B1: CPEB3 Ribozyme (parent)
chain: UAACAGGGGGCCACAGCAGAAGCGUUCACGUCGCAGCCCCUGUCAGAUUCUGGUGAAUCUGCGAAUUCUGCUGUAUAUCUC

The series covers variants of B1. The series can be described thus: self-cleavage, relative activity (ratio to wild type); higher = more cleavage; in vitro, sequencing. A digest of the protocol:
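Libraries of CPEB3 self-cleaving ribozyme mutants came from rounds of error-prone PCR and carried barcodes, which DNA sequencing matched to variants. In vitro transcription used T7 RNA polymerase at 37°C for 5 hours, with a further 15 min in DNase I before EDTA stopped the reaction; the ribozymes cleaved during both steps. The RNA was reverse transcribed with template switching and sequenced on Illumina. Relative activity is the cleaved/total read fraction of a variant divided by that of the unmutated ribozyme, averaged over three batches with at least 5 reads.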
As for UAACAGGGAGCCACAGCUGAAGCGUCCACGCCGCAGCCCCUGUCAGGUUCUGGUGAAUCUGCGAAUUCUGCUGUAUAUCUC [G9A A18U U26C U31C A47G], the self-cleavage amounted to 0.04.

For UAACAGGGAGCCACAGCAGGAGCGUUCACGUCGCAGCCCCUGUCCGAUUCUGGUGAAUCUGCGAAUUCUGCUGUAUAUCUC [G9A A20G A45C], the self-cleavage came to 0.22.

Turning to UAACAGGGAGCCACAGCAGAAGCGUUCACGUCGCAGCCCCUGUCAGAUUCUGGUGUAUCUGCGAAUUCCGCUGUAUAUCUC [G9A A56U U69C], the self-cleavage came out at 0.06.

With UAACAGGGAGCCACAGCAGAAGCGUUCACGUCGCAGCCCCUGUCAGAUUCUGGUGGAUCUGCGGACUCUGCUGUAUAUCUC [G9A A56G A64G U66C], the self-cleavage came out at 0.05.

With UAACAGGGAGCCACAGCAGAAGCGUUCACGUCGCAGCCCCUGUCGGAUACUCGUGAAUCUGCGAAUUCUGCUGUAUAUCUC [G9A A45G U49A G52C], the self-cleavage was found to be 0.08.

Take UAACAGGGAGCCACAGCAGUAGCGUUCACGUCGCAGCCCCUGACAGAAUCAGGUGAAUCUGCGAAUUCUGCUGCGUAUCUC [G9A A20U U43A U48A U51A U74C A75G]: the self-cleavage is 0.11.

For UAACAGGGAGCCACAGCAGGAGAGUUCACGUCGCAGCCCCUGUCAGGUUCUGGUGAAUCCGCGAAUUCUGCUGUAAAUCUC [G9A A20G C23A A47G U60C U76A], the self-cleavage came out at 0.04.

As to UAACAGGGAGCCACAGCAGAAGCGUUCGCGUCGCAGCCCCUGUCAGAUUCUGGCGGAUCUGCGAGUUCUGCGGUAUGUCUC [G9A A28G U54C A56G A65G U72G A77G], the self-cleavage was 0.21.

Turning to UAACAGGGAGCCACAGCAGUAGCGUUCACGUCGCAGCCCCUGUCAGAUCCUGGUGAAUCUGCAAAUUCUGCUGUAUAUCUC [G9A A20U U49C G63A], the self-cleavage was 0.15.

As to UAACAGGGAGCCACAGCAGAAGCGUUCGCGUCGCAGCCCCUGUCAGAUUCUGGUGUAUCUGCGAAUUCUGCCGUAUACCUC [G9A A28G A56U U72C U78C], the self-cleavage was found to be 0.04.

Turning to UAACAGGGAGCCACAGCAGAGGCGUCCACGUCGCUGCCCCUGUCAGAUUCUGGUGAAUCUGCGAAUCCUACUGUAUAUCUC [G9A A21G U26C A35U U67C G70A], the self-cleavage worked out at 0.04.

Turning to UAACAGGGAGCCACAGCAGAAGCGUUCACGUCGCAGCCCCUGUCGGAUUCUAGUGAAUCUGCGAAUUCCGCUGUAUAUCUC [G9A A45G G52A U69C], the self-cleavage is 0.09.

Consider UAACAGGGAGCCACAGCAGGAGCGAUCACGUCGCAGCCCCUGUCAGAUUCUGGUGAAUCUGCGAAUUCUGCCGUAUAUCCC [G9A A20G U25A U72C U80C], for which the self-cleavage is 0.29.

In the case of UAACAGGGAGCCACAGCAGGAGCGUUCACGUCGCAGCCCCCGUCAGAUUCUGGUGAAUCUGCCAAUUCAGCUGUACACCUC [G9A A20G U41C G63C U69A U76C U78C], the self-cleavage was found to be 0.05.

For the variant UAACAGGGAGCCACAGCAGAAGCGUUCACGUCGCUGCCCCUGUCAGAUUCUGGUGAACCUGCGAAUUCUGCUGUAUUUCUC [G9A A35U U58C A77U], the self-cleavage amounted to 0.15.

With UAACAGGGAGCCACAGCAGAAGCGUUCUCGUCGCAGCCCCUGUCAGAUUCUGGUGAAUCUGCGAGUUCUGCUGUAUAUCUC [G9A A28U A65G], the self-cleavage worked out at 0.05.

As to UAACAGGGAGCCACAGCAGAAGCGUUCUCGUCGCAGCCCCUGUCAGAUUCUGGUGAAUCUGCGAAUCCUGCUGUAUAUCCC [G9A A28U U67C U80C], the self-cleavage stood at 0.07.

As to UAACAGGGAGCCACAGCAGAAGCGUUCACGUCGCGGCCCCAGUCAGAUUCUGGUGAAUCUGCGAAGUCUGCUGUAUAUCUC [G9A A35G U41A U66G], the self-cleavage was determined as 0.06.

For the variant UAACAGGGAGCCACAGCAGGAGCGCUCACGUCGCAGCCCCUGUCAGAUUCUGGUGAAUCUGCGAAUUCUGCUGUACACCUC [G9A A20G U25C U76C U78C], the self-cleavage was determined as 0.16.

In the case of UAACAGGGAGCCACAGCAGUAGCGUUCACGCCGCAGCCCCUGUCAGAUUCUGGCGAAUCAGCGAAUUCUGCAGUAUAUCUC [G9A A20U U31C U54C U60A U72A], the self-cleavage was 0.06.

For the variant UAACAGGGAGCCACAGCAGAAGCGUUCACGUCGCAGCCCCUGUCAGGCUCUGGUGAAUCUGCGAAUUCUACUGUAAAUCUC [G9A A47G U48C G70A U76A], the self-cleavage is 0.08.

In the case of UAACAGGGAGCCACAGCAGAGGCGUUCACGUCGCAGCCCCUGUCAGAUUCUGGUGAGUCUGUGAAUUCUGCUGUAUAUCUC [G9A A21G A57G C62U], the self-cleavage is 0.18.

Regarding UAACAGGGAGCCACAGCAGGAGCGUUCACGUCGCAGCCCCUGUCAGAUUCUGGUGAAUCUGCGAAUUCUGCUGUACAUCUC [G9A A20G U76C], the self-cleavage came out at 0.41.

As for UAACAGGGAGCCACAGCAGAAGCGUUCACGUCGCAGCCCCUGUCGGAUUCUGGUGAAUCAGCGAAUUCUGCAGUAUAUCUC [G9A A45G U60A U72A], the self-cleavage came to 0.12.

For the variant UAACAGGGAGCCACAGCAGAAGCGUUCUCGUCGCAGCCCCUGUCUGCCUCUGGUGAAUCUGCGGAUUCUGCUGUAUAUCUC [G9A A28U A45U A47C U48C A64G], the self-cleavage is 0.14.

In the case of UAACAGGGAGCCACAGCUGAAGCGUUCGCGUCGCAGCCCCUGUCAGAUACUGGUGAAUCGGCGAAUUCUGCUGUAUACCUC [G9A A18U A28G U49A U60G U78C], the self-cleavage came to 0.05.

In the case of UAACAGGGAGCCACAGCAGAAGCGUUCACGUCGCAGCCCCUGUCAGAUUCUGGUGUAUCUGCGGAUAUUGCUGUAAAUCUC [G9A A56U A64G U67A C68U U76A], the self-cleavage worked out at 0.03.

Take UAACAGGGAGCCACAGCAGAAGCGUUCACGUCGCAGCCCCUGUCAGAUUCUGGUGAGUCAGCGAAUUCUGCUGUAUAUCUC [G9A A57G U60A]: the self-cleavage is 0.11.

As to UAACAGGGAGCCACAGCUGAUGCGUUCACGUCGCAGCCCCUGUCAGAUUCUGGUGAAUCUGCGUACUCUGCUGUAUACCUC [G9A A18U A21U A64U U66C U78C], the self-cleavage is 0.11.

UAACAGGGAGCCACAGCAGAAGCGUUCACGUCGCAGCCCCUGUCAGAUUCUGGUGGAUCUGCGAACUCUGCUGUACAUCUC [G9A A56G U66C U76C]: the self-cleavage was determined as 0.28.

On to UAACAGGGAGCCACAGCAGGAGCGCUCACGUCGCAGCCCCUGUCAGAUUCUGGUGAAUCUGCGAAUUCUGCUGCAUAUCUC [G9A A20G U25C U74C], for which the self-cleavage turned out to be 0.07.

As for UAACAGGGAGCCACAGCAGAUGCGUUCACGUCGCAGCCCCUGUCAGAUUCUGGUGAAUCUGCGAACUCUGCUGUAUACCUC [G9A A21U U66C U78C], the self-cleavage was found to be 0.05.

With UAACAGGGAGCCACAGCAGAAGCGUUCACGUCGCAGCCCCUGUCAGAUUCUGGUGUAUCUACGAAUUCUGCUGUAUACCUC [G9A A56U G61A U78C], the self-cleavage was 0.05.

In the case of UAACAGGGAGCCACAGCUGAAGCGUUCUCAUCGCAGCCCCUGUCAGAUUCUGGUGAAUCUGCGAAUUCUGCUGUACAUCCC [G9A A18U A28U G30A U76C U80C], the self-cleavage is 0.07.
